Reference: the RNAGym collection of RNA variant scans (doi:10.7554/elife.90254)
The source gives no read counts; variants with many changes may rest on few reads.

B1: LINE1-mini (parent)
chain: GGCAGAGCUCAACACAGCGUGGCAAAGUGGCUGUGGCUAGACUGCC

Variants of: B1
Experiment: self-cleavage, relative activity (ratio to wild type); higher = more cleavage; in vitro, sequencing; the parent is a self-cleaving ribozyme

Variant	self-cleavage
A11C C23A U28G A39G	0.01
A12G C18G A25U C37U	0
G33U A41C U43G	0.03
C10A C15G U20G U38C G44A	0.01
U9A A16G G35U	0.04
A4G G36U U43G G44A	0.03
G2U G5U U9C A16G G33C	0.01
C3U U9C C13G A14U G29A	0.04
U9G C18A C42A	0.02
G1C A16G G36C	0.02
G36A C37U G44C	0.05
A6U C10A U20A U32A U34A G36U	0.01
U20A G40C C42U G44A	0.01
G17C G19A U34A C45U	0.02
C10G G19A C23A G30C	0.23
A14C C15A C23A G29C G44U	0.02
A4G C8A C15U G17U	0.09
G1A C3G A4G A11G G40U C42G	0.02
A4C A6C U34G	0.04
G2C A6C U20C C23U G33C U34G	0.01
G2C C3U G19C U32A	0.07
U9C C15A A24U	0
A14G G19U G21U C23U C31G A39G	0.01
G5A C15A A16G	0.07

Variant	self-cleavage
C3U A6G U34G U43A	0.09
C10A C18U G21U G35U G36A U38G	0.01
G36U C42U U43A	0.08
A4C A16G U38C	0.03
C8U U20A C31U	0.05
C3U A11G U20A A25U C31U	0.01
C31A U32C A39C	0.12
A12G U32C G35A	0.02
G5C C23U U34G	0.02
G1U G22C G36C C37A	0.09
G2U A6C C15G	0.01
G1A A14G G30A A39C	0.04
A6U A12C G35C	0.05
G7C C10U G29A C42U C46U	0.02
G22A U28G G30C	0.11
G7C A41C C42A	0.12
G2U G35A G36A	0.05
G2A G7U A12G	0.01
C18U G22A A41C C46U	0.02
A14G G30A A41U	0.3
C3G C8A G17A G29A	0.3
G2A G40U C45U	0.13
A14C G30C C31A G33A	0.06
A25U G33A G35A C42G C46G	0.07

Variant	self-cleavage
C8U C10A C15G G30A U38G A39U	0.02
C3A G17A U34C	0.08
G5A G17U U38C	0.05
G17U U38C C42A	0.14
G2U U9C A26G C37U	0.05
G2A A4U C13A	1.39
G2C C37A U43A	0.45
C3A A11U G19A C23A U28G G33A	0.02
C18U C23A U38A G40U U43C	0.1
C8G G33A G35A G36U	0.2
G21U U38C U43C	0.04
G27A U34A G36C C46U	0.04
G21U G27U C31G	0.15
G1U A6G G17U A39U	0
C10G A11C C23A	0.01
C8A C23U A41G	0.34
G36A A39G A41U	0.1
G27C C31U C37U C46G	0.01
C18G G29C G33U G35U	0.03
A16C U34G G44U	0.03
A11U A12C C45G	0
G30A U34A U38A	0.05
C3U A11U A12C G22C C46A	0.05
A4G C10A U20G U34C	0.02

Variant	self-cleavage
A24G G27A G40C	0.21
A16U G19A G22U G29C C31G G35U	0.01
G5A U9G A16U U20C G36C	0.06
U9A A16U G21A G22U C37A C45A	0.04
G27U C31A G35C A39G	0.06
C3G A4U C13G C45U	0.02
G2U A14C G19C A41G	0.02
G2C A16G G21C	0.28
A4C U34C C46U	0.05
G2A C10U A16G C18U G30U	0.03
G22U G27U C45U	0.74
G17U G29U C37U A41C	0.02
A4C G17A C31U C45A	0.11
G5A C18U G29U G33C	0.02
G7U A11G A14G A26U	0.03
A4U C13U C18U U20C C23U	0.06
A12G A14C G40U	0.01
A6G A11C C15A G22U A25G G40C	0.01
G7A C10A G29A G36U	0.13
C31U C37G C42U	0.07
A4C A12G G29A G30C	0.17
C3U U9G A11C	0.04
A4U C18A G27A G29U G33A	0.13
A16C A26U C31U	0.01

Variant	self-cleavage
A6U C10A A26G G36U	0.01
A4U G17C U38C	0.14
A11C U20A G30U G40C C42A	0
A4U C8G C23A G29C G35A G36A	0.04
C10A C15U U28G	0.06
G29U G30A C31A	1.34
C10G G21U A25C	0.03
G19A G27C C31G C45A	0.11
G2C U34G G36U	0.02
C3U A6G A12U C13A A16G G19A C42A C45A	0
G5U C10U G17C C18A	0.03
A4U G22U A39G G40C	0.03
G1U G5U U9C A16G	0.02
A12U C13U U20G G29A	0.16
A16U G19A G36U	0.08
C3A G30C G36A	0.18
A14C U34A A41C	0.01
A26C G35U G36C G44C	0.42
C10U G30U C31G	0.07
A12C C23U G35C C37G G40A C46U	0
G17C G19C A25G U32A G33A	0.04
A12U C15A C18A G19U G27C G40A G44A	0.01
U20C U32G U34A	0.02
A6U C13A U34A C45U	0.03

Variant	self-cleavage
A4U C15A G29A	0.04
C10G G29A G35A C46A	0.05
C8U G29A U34A	0.07
G17U G21A C46U	0.2
A4U A12G C45U	0.35
G17U G27U G33A	0.08
G30A G33A A39U	0.04
G7A C23A A24U G35C	0.03
A12C G29U G33C G44C	0
G2U G5U U9C G27C C37U	0.01
G1U C8A G27U G35A	0.03
A4G C13A G21A G30U A39U	0.13
A12G G19A U32G G33U C42A	0.13
C18G G33U A39G	0
G5U A24G G44U	0.09
A4G G5A C15G A24U A39G	0.03
A14C A16C G27A U38C	0.04
A14C G17A G22C G33U U34G	0.01
C10G A14C U28A	0.02
C10A A11U G40U	0.02
A4C G35A C46U	0.05
A16U U28C G29U	0.41
U9C C10G A16C A41C	0.02
A11C C37U C46A	0

Variant	self-cleavage
C15G C18G U28G	0.01
G5U A6U A24U G27U U38A	0.06
A4C G17A U32A G44A	0.02
G29A U34C C42U	0.02
C8U G22A G35A G40A	0.2
G2U A26G G33C U34A G36U C45U	0.02
C15A G29C C42A	0.05
G7U U9C C23A	0.02
G5A U38G A41U	0.04
G5A G7C C10U C13U	0.09
G2A A25G U38A C46A	0.09
A24C G36A A41G C42U G44U	0.04
G2U G5C A26G	0.02
G7U G19U C23A C37U	0.02
G7C G21A G29U C46A	0.26
G7U C10A G22A C45U C46U	0.02
A6U G17U G19U G40U	0.01
C8A U9A U32G	0.15
A6U G22U C46G	0.41
G5U G17A U32C	0.06
G19A U34A G44A	0.05
G1A G2A A14U C23U	0.19
A25C G27A G29C C31G	2.78
